Measurements taken from the RNAGym collection of RNA variant scans (doi:10.1093/nar/gkz1192).
The source gives no read counts; variants with many changes may rest on few reads.

B1: CPEB3 Ribozyme (parent)
chain: UAACAGGGGGCCACAGCAGAAGCGUUCACGUCGCAGCCCCUGUCAGAUUCUGGUGAAUCUGCGAAUUCUGCUGUAUAUCUC

Variants of: B1
Test: self-cleavage, relative activity (ratio to wild type); higher = more cleavage; in vitro, sequencing
Procedure, shortened: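 For each CPEB3 ribozyme variant, relative activity is its cleaved/total read fraction divided by the unmutated ribozyme's. Barcoded error-prone PCR libraries were transcribed by T7 RNA polymerase (5 hours, 37°C) and held in DNase I for 15 min before an EDTA stop, with cleavage occurring throughout. Template-switching reverse transcription and Illumina sequencing were used to read the RNAs. A 5-read minimum applied, and results are the mean of three batches.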

Variant | self-cleavage
C11G C23A U31C A35G U49A A56G | 0.05
C11G A18U A35G | 0.06
C11A A13U U31C | 0.2
C11G A18G U49C G52A A75U | 0.06
C11G A15G U26C U51A U69A | 0.04
C11A A20G C37U U60C A65U | 0.05
C11A A35G C40U | 0.17
C11G A18G C32U | 0.06
G10U U60A U66A | 0.14
C11G C39G U72C | 0.19
C11A U49C U66C U72C | 0.06
C11A A20G C59A U72C | 0.08
C11G A13U U58C U60G | 0.1
C11G A13G A15G U31A U51A U58C | 0.05
C11A A18U U51A A57G | 0.04
C11A U72C A75U | 0.6
C11A A15G G22A A47U U54G U66A U74C | 0.18
C11A A21U A35G A64U U69C U78C | 0.02
C11A A18U U26C A45U U51C U54G A57G | 0.1
C11G A21G U25A A28G A57G U67C | 0.18
C11G A21G U26C U58C U67C U69A | 0.04
C11G A20C A35U U74C | 0.05
C11A A15U U66C | 0.19
C11G U25C G52A | 0.38

Variant | self-cleavage
C11A A21G C27G U67C | 0.14
C11A A15U A28U U43C | 0.53
C11A G33A U49C U76A | 0.07
C11A U26C U41C A47G U58C | 0.15
C11G A56G G70A U78C | 0.09
C11G C38A U51C U80G | 0.07
C11A C12U A18U U25C U49C U51C | 0.05
C11G A20U U72A U78C | 0.18
C11G A13G A15G U26C C62U | 0.05
C11G U31A C38U | 0.09
C11G C38G U76A | 0.07
C11G A65G A77C | 0.05
C11G A13G U80C | 0.56
C11G C27G U43A A56G U78C | 0.05
C11G C29U U31C | 0.06
C11G A21U U25A C27U C32U | 0.06
C11A U54A A57G | 0.41
C11G A18G U41A A45U | 0.06
C11A A15U A45G | 0.21
C11A A65G U66A | 0.2
C11G A45G U58A G73A | 0.11
C11G A18U A21G A35U A57G U60A U72C | 0.13
C11A A20G U31A G36A | 0.05
C11G A21G A56U | 0.03

Variant | self-cleavage
C11A A15U U26G C29U U76C | 0.16
C11G U25C A56U | 0.05
C11G A15U U25C U31A U43C A45G U74C | 0.31
C11A A56G U66A U72C | 0.07
C11G C34U U78C | 0.08
G10U U49C U69C U76C | 0.13
C11G A15G U43C U74A | 0.1
C11A A21G U25C U54C A77G | 0.04
C11G G36A U43G | 0.08
C11G A13G A45U U66A U76C | 0.04
C11G A15G C17U A18G U67C G70C U72G | 0.01
C11G A28G A64G U67G | 0.07
C11G A13C U25C A45G | 0.05
C11A U26G C38A G63U A64G | 0.19
C11G A20G U26C A77U | 0.44
C11G C23U A35C U72A | 0.07
C11G A21G U78A | 0.41
C11A G19U U54C A64U U69C | 0.05
G10U U41C U49A A64U U74C U78A | 0.08
C11G A13G A57G U66C U74A | 0.27
C11A C39G U54C | 0.2
C11G A65U U69C U72C | 0.09
C11G A18U A35G C38U U43C A56G | 0.05
C11G G63U A64U U67C U78A | 0.08

Variant | self-cleavage
G10U U49A U51A A64G U66C | 0.12
C11G A21G A45C U49C C71U | 0.05
C11A U51C U78G | 0.14
C11G G22A U25C U41C | 0.1
C11G A15C A35U C37A U49C A64G | 0.05
C11G A18G A57C A64U U74C | 0.04
C11A A13G U43C U48A U51C U67C | 0.08
C11A A18U U41C A65G | 0.1
C11G C17U U76C | 0.43
C11A U26C U76A | 0.21
C11G A13C U48C C50A A77G | 0.25
C11A A20G U43A A64G U72A | 0.07
G10U U43C U69C U72A A77G | 0.04
C11G G19U U31A | 0.09
C11G A35G A47G U78A U80C | 0.24
C11A A15C C27U | 0.28
C11A C29G U78C | 0.07
C11A A47G A64G U72C | 0.2
C11G C23G U41A U43C C79G | 0.22
C11G A57G G63C U80C | 0.46
C11A A18G U48C | 0.35
C11G G24U U26C G33U | 0.06
C11G A13G A45U U67C U69A | 0.22
C11A A15G U60A G73A | 0.14

Variant | self-cleavage
C11A G24A U26A A47G | 0.06
C11G C17U U25C A45G A57U | 0.04
C11A A21G C34U U43C U49C | 0.04
C11A U31C A45U A56G | 0
C11G A15G A35U C37U U43C | 0.09
C11A U25C C34A A45G U60G C71U U78C | 0.02
C11G G24C A35G G63A | 0.07
C11A A21G A28U A47G U74G | 0.06
C11G A13G A15G U25C G33A U72C | 0.07
C11G C12U A13C A18U U25C U72G | 0.1
C11G G55A U76C | 0.15
C11G A20U U25C A28U | 0.07
C11A C38A A45G G61C U66C | 0.04
C11A A15G U80A | 0.42
C11G G19A U25G U41A A45G U78A U80C | 0.31
C11A U25A U31A | 0.07
C11G C17U U26A | 0.13
C11G A21G C29U | 0.42
C11G A18C U43A U78C | 0.05
C11G A13G U51C G61C U67C | 0.06
C11G C12U A20G | 0.48
C11G C29U U66A | 0.04
C11A A13G U26G U67C U69A | 0.08
C11G A18G C40U A47U | 0.06

Variant | self-cleavage
C11G C14A C27U A45U U80C | 0.09
C11A A21G U41A U43A U66C A77G | 0.04
C11G A15G A35U G52A | 0.38
C11A A21G A77G | 0.32
C11A A15G A20U U25A U41C A45G U69A | 0.12
C11G A20G U51A U60A A77G | 0.08
C11A A18U C32U G36A | 0.05
C11G A13G G19A | 0.07
C11A A21G A28G U58A | 0.3
C11G A15G A57G U78C | 0.1
C11G A13U U78G | 1.17
C11G A18G A47G U72C U80C | 0.23
C11A C29G U67C U72C | 0.05
C11A U26C C34U U60A | 0.05
C11G C38A U60C G73A | 0.09
C11G A13G C38A U43C A56U C59U | 0.06
C11A A20G G46U U48A U60C U80A | 0.35
C11G A35G U51C A64U | 0.28
C11G A15G A21G A75G | 0.05
C11G A28G U67C | 0.1
C11G U25C A45U U54C | 0.39
C11A A15U A56U A65G C68A | 0.02
C11G C34U U66C | 0.06
C11A A13G U49A U54C A57G | 0.19

Variant | self-cleavage
C11A U31G U60C U72C U76C | 0.05
C11A A20U U25C A35G U49C C59U | 0.06
C11A A21G U31C | 0.06
C11A A18U A64U | 0.04
C11G A18C C38A U41A A56G U66G | 0.03
C11G G30A A35U A64G | 0.18
C11A U51C G52A U54C A56G U60A G61U | 0.05
C11A A18U C23G C44A | 0.06
C11G A15G U51C U60C G63A A65G U74A | 0.19
C11A A13G U25C U26C C29U G52A U69C | 0.06
C11G A28G U49C U78C | 0.08
C11G C23G U26C C79U | 0.07
C11A C38U G52A | 0.1
C11G U26G A64G A65G U76C | 0.04
C11G U25A U48C A64G U67A | 0.06
C11G A18G A35U U49A A65G U66C | 0.06
C11A C37U U41A U49C A57U U60G | 0.05
C11G U26A C38U A47G U76A | 0.06
C11A U31A A35G U54C | 0.32
C11A A56U A64G | 0.15
C11G A15G U51A U78C | 0.15
C11A C37U U51G U72A | 0.12
C11G G16U A28G | 0.28
